# Measurements: the supplement of paper PMC8728848
# This is one part of the list.
# B1: CFEM-PPm (Pichia pastoris), F2QPV1 (protein)
# chain: AVATPPACLLACAAEVVKESSDCDALNNIQCICENEGSAIHACLESTCPDGLSSTALQSFEDVCE
# Assays:
# Assay in all cases: glycan array binding signal (z-score within array); higher = stronger binding
# Conditions in all cases: glycan notation: IUPAC condensed, linker removed
# [1] = target: GlcNAc(a1-6)Gal(b1-4)GlcNAc
# Outline: (§1)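 From the Consortium for Functional Glycomics database, 3228 arrays were curated, keeping only those whose protein sequence was available. Binding is given as a within-array Z-score averaged across arrays sharing a protein sequence and across linkers. Negative Z-scores can be read as non-binding.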
# [2] = target: GlcNAc(b1-2)Gal(b1-3)GalNAc
# Outline: as §1
# [3] = target: GlcNAc(b1-2)Man(a1-3)[GlcNAc(b1-2)Man(a1-6)]Man(b1-4)GlcNAc(b1-4)GlcNAc
# Outline: as §1
# [4] = target: GlcNAc(b1-2)Man(a1-3)[GlcNAc(b1-2)Man(a1-6)]Man(b1-4)GlcNAc(b1-4)[Fuc(a1-6)]GlcNAc
# Outline: as §1
# [5] = target: GlcNAc(b1-2)Man(a1-3)[GlcNAc(b1-4)][GlcNAc(b1-2)Man(a1-6)]Man(b1-4)GlcNAc(b1-4)GlcNAc
# Outline: as §1
# [6] = target: GlcNAc(b1-2)Man(a1-3)[GlcNAc(b1-4)][GlcNAc(b1-2)Man(a1-6)]Man(b1-4)GlcNAc(b1-4)[Fuc(a1-6)]GlcNAc
# Outline: as §1
# [7] = target: GlcNAc(b1-2)[GlcNAc(b1-4)]Man(a1-3)[GlcNAc(b1-2)Man(a1-6)]Man(b1-4)GlcNAc(b1-4)GlcNAc
# Outline: as §1
# [8] = target: GlcNAc(b1-2)[GlcNAc(b1-4)]Man(a1-3)[GlcNAc(b1-4)][GlcNAc(b1-2)Man(a1-6)]Man(b1-4)GlcNAc(b1-4)GlcNAc
# Outline: as §1
# [9] = target: GlcNAc(b1-2)[GlcNAc(b1-4)]Man(a1-3)[GlcNAc(b1-4)][GlcNAc(b1-2)[GlcNAc(b1-6)]Man(a1-6)]Man(b1-4)GlcNAc(b1-4)GlcNAc
# Outline: as §1
# [10] = target: GlcNAc(b1-2)[GlcNAc(b1-4)]Man(a1-3)[GlcNAc(b1-4)][GlcNAc(b1-2)[GlcNAc(b1-6)]Man(a1-6)]Man(b1-4)GlcNAc(b1-4)[Fuc(a1-6)]GlcNAc
# Outline: as §1
# [11] = target: GlcNAc(b1-2)[GlcNAc(b1-6)]Man(a1-6)[GlcNAc(b1-2)Man(a1-3)]Man(b1-4)GlcNAc(b1-4)GlcNAc
# Outline: as §1
# [12] = target: GlcNAc(b1-2)[GlcNAc(b1-6)]Man(a1-6)[GlcNAc(b1-2)Man(a1-3)]Man(b1-4)GlcNAc(b1-4)[Fuc(a1-6)]GlcNAc
# Outline: as §1
# [13] = target: GlcNAc(b1-2)[GlcNAc(b1-6)]Man(a1-6)[GlcNAc(b1-4)][GlcNAc(b1-2)Man(a1-3)]Man(b1-4)GlcNAc(b1-4)GlcNAc
# Outline: as §1
# [14] = target: GlcNAc(b1-3)Fuc
# Outline: as §1
# [15] = target: GlcNAc(b1-3)Gal
# Outline: as §1
# [16] = target: GlcNAc(b1-3)Gal(b1-3)GalNAc
# Outline: as §1
# [17] = target: GlcNAc(b1-3)Gal(b1-4)Glc
# Outline: as §1
# [18] = target: GlcNAc(b1-3)Gal(b1-4)GlcNAc
# Outline: as §1
# [19] = target: GlcNAc(b1-3)Gal(b1-4)GlcNAc(b1-2)Man(a1-3)[GlcNAc(b1-3)Gal(b1-4)GlcNAc(b1-2)Man(a1-6)]Man(b1-4)GlcNAc(b1-4)GlcNAc
# Outline: as §1
# [20] = target: GlcNAc(b1-3)Gal(b1-4)GlcNAc(b1-2)Man(a1-3)[GlcNAc(b1-3)Gal(b1-4)GlcNAc(b1-2)Man(a1-6)]Man(b1-4)GlcNAc(b1-4)[Fuc(a1-6)]GlcNAc
# Outline: as §1
# [21] = target: GlcNAc(b1-3)Gal(b1-4)GlcNAc(b1-2)[GlcNAc(b1-3)Gal(b1-4)GlcNAc(b1-6)]Man(a1-6)[GlcNAc(b1-3)Gal(b1-4)GlcNAc(b1-2)Man(a1-3)]Man(b1-4)GlcNAc(b1-4)GlcNAc
# Outline: as §1
# [22] = target: GlcNAc(b1-3)Gal(b1-4)GlcNAc(b1-3)Gal(b1-4)GlcNAc
# Outline: as §1
# [23] = target: GlcNAc(b1-3)Gal(b1-4)GlcNAc(b1-3)Gal(b1-4)GlcNAc(b1-2)Man(a1-3)[GlcNAc(b1-3)Gal(b1-4)GlcNAc(b1-3)Gal(b1-4)GlcNAc(b1-2)Man(a1-6)]Man(b1-4)GlcNAc(b1-4)GlcNAc
# Outline: as §1
# [24] = target: GlcNAc(b1-3)Gal(b1-4)GlcNAc(b1-3)Gal(b1-4)GlcNAc(b1-2)Man(a1-3)[GlcNAc(b1-3)Gal(b1-4)GlcNAc(b1-3)Gal(b1-4)GlcNAc(b1-2)Man(a1-6)]Man(b1-4)GlcNAc(b1-4)[Fuc(a1-6)]GlcNAc
# Outline: as §1
# [25] = target: GlcNAc(b1-3)Gal(b1-4)GlcNAc(b1-3)Gal(b1-4)GlcNAc(b1-2)[GlcNAc(b1-3)Gal(b1-4)GlcNAc(b1-3)Gal(b1-4)GlcNAc(b1-6)]Man(a1-6)[GlcNAc(b1-3)Gal(b1-4)GlcNAc(b1-3)Gal(b1-4)GlcNAc(b1-2)Man(a1-3)]Man(b1-4)GlcNAc(b1-4)[Fuc(a1-6)]GlcNAc
# Outline: as §1
# [26] = target: GlcNAc(b1-3)Gal(b1-4)GlcNAc(b1-3)Gal(b1-4)GlcNAc(b1-3)Gal(b1-4)GlcNAc(b1-2)Man(a1-3)[GlcNAc(b1-3)Gal(b1-4)GlcNAc(b1-3)Gal(b1-4)GlcNAc(b1-3)Gal(b1-4)GlcNAc(b1-2)Man(a1-6)]Man(b1-4)GlcNAc(b1-4)GlcNAc
# Outline: as §1
# [27] = target: GlcNAc(b1-3)Gal(b1-4)GlcNAc(b1-3)Gal(b1-4)GlcNAc(b1-3)Gal(b1-4)GlcNAc(b1-2)Man(a1-3)[GlcNAc(b1-3)Gal(b1-4)GlcNAc(b1-3)Gal(b1-4)GlcNAc(b1-3)Gal(b1-4)GlcNAc(b1-2)Man(a1-6)]Man(b1-4)GlcNAc(b1-4)[Fuc(a1-6)]GlcNAc
# Outline: as §1
# [28] = target: GlcNAc(b1-3)Gal(b1-4)GlcNAc(b1-3)Gal(b1-4)GlcNAc(b1-3)Gal(b1-4)GlcNAc(b1-2)[GlcNAc(b1-3)Gal(b1-4)GlcNAc(b1-3)Gal(b1-4)GlcNAc(b1-3)Gal(b1-4)GlcNAc(b1-6)]Man(a1-6)[GlcNAc(b1-3)Gal(b1-4)GlcNAc(b1-3)Gal(b1-4)GlcNAc(b1-3)Gal(b1-4)GlcNAc(b1-2)Man(a1-3)]Man(b1-4)GlcNAc(b1-4)[Fuc(a1-6)]GlcNAc
# Outline: as §1
# [29] = target: GlcNAc(b1-3)Gal(b1-4)GlcNAc(b1-3)Gal(b1-4)GlcNAc(b1-3)Gal(b1-4)GlcNAc(b1-3)Gal(b1-4)GlcNAc(b1-2)Man(a1-3)[GlcNAc(b1-3)Gal(b1-4)GlcNAc(b1-3)Gal(b1-4)GlcNAc(b1-3)Gal(b1-4)GlcNAc(b1-3)Gal(b1-4)GlcNAc(b1-2)Man(a1-6)]Man(b1-4)GlcNAc(b1-4)GlcNAc
# Outline: as §1
# [30] = target: GlcNAc(b1-3)Gal(b1-4)GlcNAc(b1-3)Gal(b1-4)GlcNAc(b1-3)Gal(b1-4)GlcNAc(b1-3)Gal(b1-4)GlcNAc(b1-2)Man(a1-3)[GlcNAc(b1-3)Gal(b1-4)GlcNAc(b1-3)Gal(b1-4)GlcNAc(b1-3)Gal(b1-4)GlcNAc(b1-3)Gal(b1-4)GlcNAc(b1-2)Man(a1-6)]Man(b1-4)GlcNAc(b1-4)[Fuc(a1-6)]GlcNAc
# Outline: as §1
# [31] = target: GlcNAc(b1-3)Gal(b1-4)GlcNAc(b1-3)Gal(b1-4)GlcNAc(b1-3)Gal(b1-4)GlcNAc(b1-3)Gal(b1-4)GlcNAc(b1-2)[GlcNAc(b1-3)Gal(b1-4)GlcNAc(b1-3)Gal(b1-4)GlcNAc(b1-3)Gal(b1-4)GlcNAc(b1-3)Gal(b1-4)GlcNAc(b1-6)]Man(a1-6)[GlcNAc(b1-3)Gal(b1-4)GlcNAc(b1-3)Gal(b1-4)GlcNAc(b1-3)Gal(b1-4)GlcNAc(b1-3)Gal(b1-4)GlcNAc(b1-2)Man(a1-3)]Man(b1-4)GlcNAc(b1-4)[Fuc(a1-6)]GlcNAc
# Outline: as §1
# [32] = target: GlcNAc(b1-3)Gal(b1-4)GlcNAc(b1-3)Gal(b1-4)GlcNAc(b1-3)GalNAc
# Outline: as §1
# [33] = target: GlcNAc(b1-3)Gal(b1-4)GlcNAc(b1-3)GalNAc
# Outline: as §1
# [34] = target: GlcNAc(b1-3)Gal(b1-4)GlcNAc(b1-3)[GlcNAc(b1-3)Gal(b1-4)GlcNAc(b1-3)]GalNAc
# Outline: as §1
# [35] = target: GlcNAc(b1-3)Gal(b1-4)GlcNAc(b1-6)[Gal(b1-3)]GalNAc
# Outline: as §1
# [36] = target: GlcNAc(b1-3)Gal(b1-4)GlcNAc(b1-6)[GlcNAc(b1-3)Gal(b1-3)]GalNAc
# Outline: as §1
# [37] = target: GlcNAc(b1-3)Gal(b1-4)GlcNAc(b1-6)[GlcNAc(b1-3)]Gal(b1-4)GlcNAc
# Outline: as §1
# [38] = target: GlcNAc(b1-3)GalNAc
# Outline: as §1
# [39] = target: GlcNAc(b1-3)Man
# Outline: as §1
# [40] = target: GlcNAc(b1-3)[GlcNAc(b1-4)][GlcNAc(b1-6)]GlcNAc
# Outline: as §1
# [41] = target: GlcNAc(b1-3)[GlcNAc(b1-6)]Gal(b1-4)GlcNAc
# Outline: as §1
# [42] = target: GlcNAc(b1-3)[GlcNAc(b1-6)]GalNAc
# Outline: as §1
# [43] = target: GlcNAc(b1-4)Gal(b1-4)GlcNAc
# Outline: as §1
# [44] = target: GlcNAc(b1-4)GlcNAc
# Outline: as §1
# [45] = target: GlcNAc(b1-4)GlcNAc(b1-4)GlcNAc
# Outline: as §1
binder,measurement,setting,value
B1,glycan array binding signal (z-score),[1],0.716
same,glycan array binding signal (z-score),[2],0.172
same,glycan array binding signal (z-score),[3],-0.317
same,glycan array binding signal (z-score),[4],-0.277
same,glycan array binding signal (z-score),[5],-0.372
same,glycan array binding signal (z-score),[6],-0.351
same,glycan array binding signal (z-score),[7],-0.275
same,glycan array binding signal (z-score),[8],-0.031
same,glycan array binding signal (z-score),[9],-0.422
same,glycan array binding signal (z-score),[10],-0.298
same,glycan array binding signal (z-score),[11],-0.28
same,glycan array binding signal (z-score),[12],-0.245
same,glycan array binding signal (z-score),[13],-0.307
same,glycan array binding signal (z-score),[14],-0.121
same,glycan array binding signal (z-score),[15],-0.249
same,glycan array binding signal (z-score),[16],-0.209
same,glycan array binding signal (z-score),[17],-0.083
same,glycan array binding signal (z-score),[18],0.308
same,glycan array binding signal (z-score),[19],-0.281
same,glycan array binding signal (z-score),[20],-0.225
same,glycan array binding signal (z-score),[21],0.338
same,glycan array binding signal (z-score),[22],-0.289
same,glycan array binding signal (z-score),[23],0.35
same,glycan array binding signal (z-score),[24],0.138
same,glycan array binding signal (z-score),[25],-0.006
same,glycan array binding signal (z-score),[26],-0.328
same,glycan array binding signal (z-score),[27],0.205
same,glycan array binding signal (z-score),[28],-0.184
same,glycan array binding signal (z-score),[29],-0.319
same,glycan array binding signal (z-score),[30],0.013
same,glycan array binding signal (z-score),[31],-0.222
same,glycan array binding signal (z-score),[32],-0.268
same,glycan array binding signal (z-score),[33],-0.088
same,glycan array binding signal (z-score),[34],-0.333
same,glycan array binding signal (z-score),[35],0.543
same,glycan array binding signal (z-score),[36],-0.173
same,glycan array binding signal (z-score),[37],-0.353
same,glycan array binding signal (z-score),[38],-0.344
same,glycan array binding signal (z-score),[39],-0.171
same,glycan array binding signal (z-score),[40],-0.165
same,glycan array binding signal (z-score),[41],-0.302
same,glycan array binding signal (z-score),[42],-0.272
same,glycan array binding signal (z-score),[43],-0.189
same,glycan array binding signal (z-score),[44],-0.195
same,glycan array binding signal (z-score),[45],-0.364
